Data from patent publication US20210015895A1 (PROCLARA BIOSCIENCES, published 2021).

B1: N1-N2-human IgG Fc fusion protein of SEQ ID NO:2 with D178G (Fc fusion)
chain: AETVESCLAKPHTENSFTNVWKDDKTLDRYANYEGCLWNATGVVVCTGDETQCYGTWVPIGLAIPENEGGGSEGGGSEGGGSEGGGTKPPEYGDTPIPGYTYINPLDGTYPPGTEQNPANPNPSLEESQPLNTFMFQNNRFRNRQGALTVYTGTFTQGTDPVKTYYQYTPVSSKAMYGAYWNGKFRDCAFHSGFNEDPFVCEYQGQSSDLPQPPANAGGESGGGSGGGSEGGGSEGGGSEGGGSEGGGSGGGSGSGARS[human IgG1 Fc not printed]
B2: N1-N2-human IgG Fc fusion protein of SEQ ID NO:2 with G48R (Fc fusion)
chain: AETVESCLAKPHTENSFTNVWKDDKTLDRYANYEGCLWNATGVVVCTRDETQCYGTWVPIGLAIPENEGGGSEGGGSEGGGSEGGGTKPPEYGDTPIPGYTYINPLDGTYPPGTEQNPANPNPSLEESQPLNTFMFQNNRFRNRQGALTVYTGTFTQGTDPVKTYYQYTPVSSKAMYDAYWNGKFRDCAFHSGFNEDPFVCEYQGQSSDLPQPPANAGGESGGGSGGGSEGGGSEGGGSEGGGSEGGGSGGGSGSGARS[human IgG1 Fc not printed]
B3: N1-N2-human IgG Fc fusion protein of SEQ ID NO:2 with D178S (Fc fusion)
chain: AETVESCLAKPHTENSFTNVWKDDKTLDRYANYEGCLWNATGVVVCTGDETQCYGTWVPIGLAIPENEGGGSEGGGSEGGGSEGGGTKPPEYGDTPIPGYTYINPLDGTYPPGTEQNPANPNPSLEESQPLNTFMFQNNRFRNRQGALTVYTGTFTQGTDPVKTYYQYTPVSSKAMYSAYWNGKFRDCAFHSGFNEDPFVCEYQGQSSDLPQPPANAGGESGGGSGGGSEGGGSEGGGSEGGGSEGGGSGGGSGSGARS[human IgG1 Fc not printed]
B4: N1-N2-human IgG Fc fusion protein of SEQ ID NO:2 with F141D (Fc fusion)
chain: AETVESCLAKPHTENSFTNVWKDDKTLDRYANYEGCLWNATGVVVCTGDETQCYGTWVPIGLAIPENEGGGSEGGGSEGGGSEGGGTKPPEYGDTPIPGYTYINPLDGTYPPGTEQNPANPNPSLEESQPLNTFMFQNNRDRNRQGALTVYTGTFTQGTDPVKTYYQYTPVSSKAMYDAYWNGKFRDCAFHSGFNEDPFVCEYQGQSSDLPQPPANAGGESGGGSGGGSEGGGSEGGGSEGGGSEGGGSGGGSGSGARS[human IgG1 Fc not printed]
B5: N1-N2-human IgG Fc fusion protein of SEQ ID NO:2 with G48S (Fc fusion)
chain: AETVESCLAKPHTENSFTNVWKDDKTLDRYANYEGCLWNATGVVVCTSDETQCYGTWVPIGLAIPENEGGGSEGGGSEGGGSEGGGTKPPEYGDTPIPGYTYINPLDGTYPPGTEQNPANPNPSLEESQPLNTFMFQNNRFRNRQGALTVYTGTFTQGTDPVKTYYQYTPVSSKAMYDAYWNGKFRDCAFHSGFNEDPFVCEYQGQSSDLPQPPANAGGESGGGSGGGSEGGGSEGGGSEGGGSEGGGSGGGSGSGARS[human IgG1 Fc not printed]
B6: N1-N2-human IgG Fc fusion protein of SEQ ID NO:2 with G48K (Fc fusion)
chain: AETVESCLAKPHTENSFTNVWKDDKTLDRYANYEGCLWNATGVVVCTKDETQCYGTWVPIGLAIPENEGGGSEGGGSEGGGSEGGGTKPPEYGDTPIPGYTYINPLDGTYPPGTEQNPANPNPSLEESQPLNTFMFQNNRFRNRQGALTVYTGTFTQGTDPVKTYYQYTPVSSKAMYDAYWNGKFRDCAFHSGFNEDPFVCEYQGQSSDLPQPPANAGGESGGGSGGGSEGGGSEGGGSEGGGSEGGGSGGGSGSGARS[human IgG1 Fc not printed]
B7: N1-N2-human IgG Fc fusion protein of SEQ ID NO:2 with F141E (Fc fusion)
chain: AETVESCLAKPHTENSFTNVWKDDKTLDRYANYEGCLWNATGVVVCTGDETQCYGTWVPIGLAIPENEGGGSEGGGSEGGGSEGGGTKPPEYGDTPIPGYTYINPLDGTYPPGTEQNPANPNPSLEESQPLNTFMFQNNRERNRQGALTVYTGTFTQGTDPVKTYYQYTPVSSKAMYDAYWNGKFRDCAFHSGFNEDPFVCEYQGQSSDLPQPPANAGGESGGGSGGGSEGGGSEGGGSEGGGSEGGGSGGGSGSGARS[human IgG1 Fc not printed]
B8: N1-N2-human IgG Fc fusion protein of SEQ ID NO:2 with G48T (Fc fusion)
chain: AETVESCLAKPHTENSFTNVWKDDKTLDRYANYEGCLWNATGVVVCTTDETQCYGTWVPIGLAIPENEGGGSEGGGSEGGGSEGGGTKPPEYGDTPIPGYTYINPLDGTYPPGTEQNPANPNPSLEESQPLNTFMFQNNRFRNRQGALTVYTGTFTQGTDPVKTYYQYTPVSSKAMYDAYWNGKFRDCAFHSGFNEDPFVCEYQGQSSDLPQPPANAGGESGGGSGGGSEGGGSEGGGSEGGGSEGGGSGGGSGSGARS[human IgG1 Fc not printed]
B9: N1-N2-human IgG Fc fusion protein of SEQ ID NO:2 with D178Q (Fc fusion)
chain: AETVESCLAKPHTENSFTNVWKDDKTLDRYANYEGCLWNATGVVVCTGDETQCYGTWVPIGLAIPENEGGGSEGGGSEGGGSEGGGTKPPEYGDTPIPGYTYINPLDGTYPPGTEQNPANPNPSLEESQPLNTFMFQNNRFRNRQGALTVYTGTFTQGTDPVKTYYQYTPVSSKAMYQAYWNGKFRDCAFHSGFNEDPFVCEYQGQSSDLPQPPANAGGESGGGSGGGSEGGGSEGGGSEGGGSEGGGSGGGSGSGARS[human IgG1 Fc not printed]
B10: N1-N2-human IgG Fc fusion protein of SEQ ID NO:2 with G48H (Fc fusion)
chain: AETVESCLAKPHTENSFTNVWKDDKTLDRYANYEGCLWNATGVVVCTHDETQCYGTWVPIGLAIPENEGGGSEGGGSEGGGSEGGGTKPPEYGDTPIPGYTYINPLDGTYPPGTEQNPANPNPSLEESQPLNTFMFQNNRFRNRQGALTVYTGTFTQGTDPVKTYYQYTPVSSKAMYDAYWNGKFRDCAFHSGFNEDPFVCEYQGQSSDLPQPPANAGGESGGGSGGGSEGGGSEGGGSEGGGSEGGGSGGGSGSGARS[human IgG1 Fc not printed]
B11: N1-N2-human IgG Fc fusion protein of SEQ ID NO:2 with M135D (Fc fusion)
chain: AETVESCLAKPHTENSFTNVWKDDKTLDRYANYEGCLWNATGVVVCTGDETQCYGTWVPIGLAIPENEGGGSEGGGSEGGGSEGGGTKPPEYGDTPIPGYTYINPLDGTYPPGTEQNPANPNPSLEESQPLNTFDFQNNRFRNRQGALTVYTGTFTQGTDPVKTYYQYTPVSSKAMYDAYWNGKFRDCAFHSGFNEDPFVCEYQGQSSDLPQPPANAGGESGGGSGGGSEGGGSEGGGSEGGGSEGGGSGGGSGSGARS[human IgG1 Fc not printed]
B12: N1-N2-human IgG Fc fusion protein of SEQ ID NO:2 with D178T (Fc fusion)
chain: AETVESCLAKPHTENSFTNVWKDDKTLDRYANYEGCLWNATGVVVCTGDETQCYGTWVPIGLAIPENEGGGSEGGGSEGGGSEGGGTKPPEYGDTPIPGYTYINPLDGTYPPGTEQNPANPNPSLEESQPLNTFMFQNNRFRNRQGALTVYTGTFTQGTDPVKTYYQYTPVSSKAMYTAYWNGKFRDCAFHSGFNEDPFVCEYQGQSSDLPQPPANAGGESGGGSGGGSEGGGSEGGGSEGGGSEGGGSGGGSGSGARS[human IgG1 Fc not printed]
B13: N1-N2-human IgG Fc fusion protein of SEQ ID NO:2 with M135A (Fc fusion)
chain: AETVESCLAKPHTENSFTNVWKDDKTLDRYANYEGCLWNATGVVVCTGDETQCYGTWVPIGLAIPENEGGGSEGGGSEGGGSEGGGTKPPEYGDTPIPGYTYINPLDGTYPPGTEQNPANPNPSLEESQPLNTFAFQNNRFRNRQGALTVYTGTFTQGTDPVKTYYQYTPVSSKAMYDAYWNGKFRDCAFHSGFNEDPFVCEYQGQSSDLPQPPANAGGESGGGSGGGSEGGGSEGGGSEGGGSEGGGSGGGSGSGARS[human IgG1 Fc not printed]

molecular target: T1, Aβ42 fibers (UniProt P05067 fragment); test: ELISA on coated Aβ42 fibers; IC50(variant)/IC50(SEQ ID NO:2)
T1 construct: domain: Aβ42; Fibrillar aggregate dry-coated on ELISA plates; number of chains in a fiber not defined; also called ABeta; Abeta
Experimental: To each well of a 96-well plate (F96 MAXISORP NUNC-IMMUNO PLATE; Catalog number: 442404, Lot 125436 and 128158; Denmark) was added 200 μL of a 1% BSA solution. The plates were sealed and incubated at 7° C. for 3 hr. Plates were then washed with PBS (250 μL/well)×3. We added 50 μL of the diluted Aβ42 fiber solution (1.6 μM) to each well and incubated uncovered at 37° C. overnight to complete dryness. PBS (50 μl/well) is added to control wells (without Aβ42 fibers). Plates were then washed 2× with water and 1× with PBS (250 μL/well for each washing).
Varying concentrations of each polypeptide (as well as the polypeptide of SEQ ID NO:2) in 50 μL were added to each well, as well as to non-Aβ42 fiber coated wells and incubated for 1 h at 37° C. Plates were then washed 3× with PBS-T (0.05% Tween 20 in PBS) and 3× with PBS (250 μL/well for each washing). We then added 50 μl of HRP-conjugated Goat anti-Human anti Fcγ (Jackson Labs, Catalog number, 109-035-008, Lot number: 106617) diluted 1:2500 (0.32 μg/mL final) in PBS-T+1% Milk (Difco™ Skim Milk, Becton, Dickinson and Company. USA, Catalog number: 232100, Lot number: 7320448) to each well and incubated for 40 min at 37° C. Plates were then washed 6× with PBS-T and 2× with PBS (250 μL/well for each washing). We then added 50 μl/well OPD solution (5 mg/7.5 ml 0.05 M Citrate buffer pH-5.513 μl H₂O₂) and let color to develop for 3-6 min. We next added 25 μl/well of 4N HCl solution to stop reaction. Plates were read for absorbance at 492 nm and 405 nm. The 405 nm absorbance was subtracted from the 492 nm absorbance and the results plotted as a function of polypeptide concentrations. An IC₅₀ for binding for each deimmunized polypeptide was then calculated and compared to the IC₅₀ calculated for the polypeptide of SEQ ID NO:2.

Aβ42 fibers, sequence (P05067 672-713 limits assumed): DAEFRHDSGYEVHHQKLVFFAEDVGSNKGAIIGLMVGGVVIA

Row | Binder | IC50 relative to SEQ ID NO: 2 [ratio]
1 | B1 | 0.2
2 | B2 | 1.9
3 | B3 | 0.3
4 | B4 | 0.2
5 | B5 | 1.2
6 | B6 | 1.1
7 | B7 | 0.2
8 | B8 | 1
9 | B9 | 0.6
10 | B10 | 1.8
11 | B11 | 0.5
12 | B12 | 0.4
13 | B13 | 0.4
